Assay results taken from the RNAGym collection of RNA variant scans (doi:10.1101/gad.245936.114).
Variants at the floor of the assay are shown more often than the library holds them.

B1: tRNA (parent)
chain: CUCUCGGUAGCCAAGUUGGUUUAAGGCGCAAGACUUUAAUUUAUCACUACGAAAUCUUGAGAUCGGGCGUUCGACUCGCCCCCGGGAGAUUUUUUCCUCGAGCAA

Variants of: B1
Test: nonsense suppression (GFP-seq) (ratio to wild type); higher = more function; SUP4oc tRNA, yeast GFP reporter sort-seq
Method in brief: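 Yeast carrying genome-integrated SUP4oc tRNA variants from a library with ~3% random mutations were grown in raffinose/galactose medium with 80 mg/L adenine. Each strain also carried a galactose-driven GFP ochre reporter and RFP. Cells were sorted into GFP/RFP bins, and each bin was Illumina-sequenced (phred ≥30). Nonsense suppression (GFPSEQ) is the bin median GFP/RFP, weighted by each variant's estimated cell share per bin, relative to wild-type SUP4oc; variants needed ≥100 reads and ≥30 cells.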

| Variant | nonsense suppression |
| --- | --- |
| C3U C5U C29A | ≤ 0.026 |
| C3G U58A C64U G65A | ≤ 0.026 |
| C3U A9U A31U C83U G88A | ≤ 0.026 |
| C3U G15A U20G | ≤ 0.026 |
| C3U G7C U58A A74G | ≤ 0.026 |
| C3U G6U G7A G25A | ≤ 0.026 |
| C3U A87G | ≤ 0.026 |
| C3U A87C | ≤ 0.026 |
| C3U A30U G69C | ≤ 0.026 |
| C3U A62U G69C | ≤ 0.026 |
| C3G U17G | ≤ 0.026 |
| C3U C80U | 0.0737 |
| C3U C29G C83G G88C | 0.993 |
| C3U C34G G69A | ≤ 0.026 |
| C3U C27U U76C G88C | ≤ 0.026 |
| C3U A24G A60U | ≤ 0.026 |
| C3G U21A | ≤ 0.026 |
| C3U G25A C29U | ≤ 0.026 |
| C3U A23U C81A | ≤ 0.026 |
| C3U G6A C11G G19C A54G G67A | ≤ 0.026 |
| C3G U70G G88C | ≤ 0.026 |
| C3U A13G C29A C34A | ≤ 0.026 |
| C3U G66C | 0.0288 |
| C3U G67U | ≤ 0.026 |

| Variant | nonsense suppression |
| --- | --- |
| C3G U22G | ≤ 0.026 |
| C3U G25A U63C | ≤ 0.026 |
| C3U G18C C64G | ≤ 0.026 |
| C3U G19C G59U A60G C72A | ≤ 0.026 |
| C3U U4A C5A | ≤ 0.026 |
| C3G G73U G86U | ≤ 0.026 |
| C3U G10A | 0.0262 |
| C3U A9G G28U | ≤ 0.026 |
| C3U A89C | 0.0874 |
| C3G U8C G61C G65A | ≤ 0.026 |
| C3U A13G U58G A60C | ≤ 0.026 |
| C3U A60G | ≤ 0.026 |
| C3U C29G U63G | ≤ 0.026 |
| C3U U4C A62G G84C | ≤ 0.026 |
| C3U G18C | ≤ 0.026 |
| C3U C77G | 0.0323 |
| C3G G85A G86U | ≤ 0.026 |
| C3U A23C G65U U76A G84U | ≤ 0.026 |
| C3G U8A C11G U22G C27G C56U C82A | ≤ 0.026 |
| C3U U4A G10U A14G A54G | ≤ 0.026 |
| C3G U21C A24C G73U | ≤ 0.026 |
| C3U A54G U55C | ≤ 0.026 |
| C3U A74C | ≤ 0.026 |
| C3G U58C G66C | ≤ 0.026 |

| Variant | nonsense suppression |
| --- | --- |
| C3U A33C G66A C72G | ≤ 0.026 |
| C3U A13G G26C U63A G65U | ≤ 0.026 |
| C3U G32A C75G | ≤ 0.026 |
| C3G U8A G25U C77G | ≤ 0.026 |
| C3U A9C G88C | ≤ 0.026 |
| C3U G19U C68U G84U | ≤ 0.026 |
| C3U C12G G88U | ≤ 0.026 |
| C3U U4C G26A C34U G78A | ≤ 0.026 |
| C3U C34G C72G C81U | ≤ 0.026 |
| C3U G6C U70A C72G C79U | ≤ 0.026 |
| C3U A24U G28A | ≤ 0.026 |
| C3U C5U G85C | ≤ 0.026 |
| C3U A23C U70C | ≤ 0.026 |
| C3U U4C U22A G73C | ≤ 0.026 |
| C3U C5U C27A G28C C29A G59U G85A | ≤ 0.026 |
| C3U A9U G88A | ≤ 0.026 |
| C3U C75U | 0.539 |
| C3U C11G A14G U20A | ≤ 0.026 |
| C3U C11U | ≤ 0.026 |
| C3U C11G | ≤ 0.026 |
| C3U A30C G32A C34A U76A | ≤ 0.026 |
| C3G U20G G69A U70C | ≤ 0.026 |
| C3U C11U U57C A60C | ≤ 0.026 |
| C3U C34U C77G | ≤ 0.026 |

| Variant | nonsense suppression |
| --- | --- |
| C3U A9G C68A | ≤ 0.026 |
| C3G U20C | 0.0788 |
| C3U U4C C68A | ≤ 0.026 |
| C3U A23G A31G C56G C72A | ≤ 0.026 |
| C3G U58C G61A U71C G86C | ≤ 0.026 |
| C3U G10A C27A C64U G88C | ≤ 0.026 |
| C3G U4A A23C A60C G69U | ≤ 0.026 |
| C3U G25A C29U A60C | ≤ 0.026 |
| C3U C34G C72U C81U | ≤ 0.026 |
| C3U U4C U58C G61A | ≤ 0.026 |
| C3U A54U C83A A89U | ≤ 0.026 |
| C3G U70G | ≤ 0.026 |
| C3G U35G C81U | ≤ 0.026 |
| C3G U21G G28C U63C C82A | ≤ 0.026 |
| C3U G19U A33G | ≤ 0.026 |
| C3U C12A A13G G66C | ≤ 0.026 |
| C3G U57G | ≤ 0.026 |
| C3U C12U | 0.039 |
| C3U C12A C79A G85U | ≤ 0.026 |
| C3U C12G U16C G67A | ≤ 0.026 |
| C3U G10U C11G C29G A30U A62U G67A | ≤ 0.026 |
| C3U A9U A14C C27A A60U | ≤ 0.026 |
| C3G U4C | 0.399 |
| C3G U57C G78C | ≤ 0.026 |

| Variant | nonsense suppression |
| --- | --- |
| C3U A14G A24G | ≤ 0.026 |
| C3U C27G U35A U58A G65A A74G | ≤ 0.026 |
| C3G U17G G84C | ≤ 0.026 |
| C3U C11U C75U | ≤ 0.026 |
| C3U G19C U58C A62U | ≤ 0.026 |
| C3U A13G U63G U76A G85C | ≤ 0.026 |
| C3G U8G C27U A31C G67A | ≤ 0.026 |
| C3U G19C | ≤ 0.026 |
| C3U A14G G67U | ≤ 0.026 |
| C3U A23C A33U G86U | ≤ 0.026 |
| C3U A33U | 0.027 |
| C3U C68G C72A | ≤ 0.026 |
| C3U C11G G15U A33C | ≤ 0.026 |
| C3U G26C G28A | ≤ 0.026 |
| C3G G85U | 0.0369 |
| C3U G32A G67U G69C | ≤ 0.026 |
| C3U A23C C27G C34A C81G G86A | ≤ 0.026 |
| C3U A23U U70G | ≤ 0.026 |
| C3U A13G U16A G67A | ≤ 0.026 |
| C3U A23G U57A | ≤ 0.026 |
| C3U G10U U20C A33G G86U | ≤ 0.026 |
| C3U G19U U22G U71C C82A | ≤ 0.026 |
| C3U A13U U20G U63C C68A U70G | ≤ 0.026 |
| C3U A13U C27A | ≤ 0.026 |

| Variant | nonsense suppression |
| --- | --- |
| C3G G88C | ≤ 0.026 |
| C3U C12U A30U | ≤ 0.026 |
| C3U C12A A13G G66C C79A | ≤ 0.026 |
| C3U U4C C5G G7U U8A A9G G10C C12A U17A U57A | ≤ 0.026 |
| C3U A9G U71C | ≤ 0.026 |
| C3U C34A U58A G67U G86A | ≤ 0.026 |
| C3U G6A G7A G19U C79A G86C | ≤ 0.026 |
| C3U G67A A89G | ≤ 0.026 |
| C3U A24G | ≤ 0.026 |
| C3U G6C G15A G32C U63A C64A U70A | ≤ 0.026 |
| C3U C29U A33G | ≤ 0.026 |
| C3U C12A A14U U16A G84A G88C | ≤ 0.026 |
| C3U G19U C81G G84U | ≤ 0.026 |
| C3U A14G | ≤ 0.026 |
| C3U A14U | ≤ 0.026 |
| C3U C11A A13G G85C | ≤ 0.026 |
| C3G G69U | ≤ 0.026 |
| C3U A24C G61C A89G | ≤ 0.026 |
| C3U G59U | ≤ 0.026 |
| C3U C12U G18U | ≤ 0.026 |
| C3U A14G G19A A33G A74C | ≤ 0.026 |
| C3U G10C U17G U22A G25C | ≤ 0.026 |
| C3U G32A G84U | ≤ 0.026 |
| C3U A13G C83A | ≤ 0.026 |

| Variant | nonsense suppression |
| --- | --- |
| C3G U20G C79U | ≤ 0.026 |
| C3G G78C | ≤ 0.026 |
| C3U G73C | ≤ 0.026 |
| C3U A14C G25U U58A G69A | ≤ 0.026 |
| C3U C68U | 0.201 |
| C3U G28A U57C G66U | ≤ 0.026 |
| C3U G18C C56A | ≤ 0.026 |
| C3G G73U A74C | ≤ 0.026 |
| C3U C27U U63G G65C | ≤ 0.026 |
| C3U C56A A87U | ≤ 0.026 |
| C3U G19U A24G | ≤ 0.026 |
| C3U G19C A33U U35G A87U | ≤ 0.026 |
| C3U G28C C34U | ≤ 0.026 |
| C3U G7A U57G C82U C83G | ≤ 0.026 |
| C3U C11A G15U U55G A62U | ≤ 0.026 |
| C3U A33C G59U G61A A74G | ≤ 0.026 |
| C3G U20G A33C | ≤ 0.026 |
| C3U C34G | ≤ 0.026 |
| C3U C5U C12G G73C C79A | ≤ 0.026 |
| C3U C11U A13G U21G U58A G84C | ≤ 0.026 |
| C3U C56U | ≤ 0.026 |
| C3U C27G | 0.0543 |
| C3G U21C C83A | ≤ 0.026 |
